The whole screen tested about 190,000 compounds, of which about 360 (0.19%) were called active. The inconclusive results got no clear call from the source; some entries with a clear call stand among them for comparison.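 How the source made its calls: active means GTP binding activity at least 20 points away from 100%, either lowered or raised; inconclusive means signal likely due to the compound's own green fluorescence; inactive means the rest.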
The compounds below were run against Ras-related protein Rab-2A (Canis lupus familiaris) (UniProt P61105) (assay: Rab2 wt fluorescent GTP binding changes, either direction – biochemical, dog, bead-based flow cytometry, multiplex, primary screen (AID 760;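 further: 0% = beads with excess unlabeled GTP and 100% = no-compound control corrected for plate trend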)). Conditions: GST-Rab2 wt beads, Bodipy-GTP binding, at 10 µM.

GTP binding activity, inactive:
Cc1ccc(OCC(=O)N2CCc3ccccc3C2)c([N+](=O)[O-])n1 95%, CCOC(=O)Cn1nc(C)n(-c2ccc(C(C)(C)C)cc2)c1=O 102%, CCOc1ccc(-n2c(=O)c3sccc3n(Cc3cccc([N+](=O)[O-])c3)c2=O)cc1 101%, COc1ccc(S(N)(=O)=O)cc1C(=O)NCC1(N2CCCCC2)CCCCC1 101%, S=c1cnc2ccccc2[nH]1 97%, Cc1nc(N2CCOCC2)sc1C(=O)NN 100%, COc1ccc(CNC(=O)C2CCCN(c3nccc(C)n3)C2)cc1 (stereo not given) 98%, Cc1ccc(C(=O)COc2nc(C)nc3ccccc23)cc1 97%, Cn1c(NNC(=O)C2CCCCC2)cc(=O)n(C)c1=O 94%, CN(C)CCNC(=S)Nc1ccc(F)c(F)c1F 97%, O=C(NCCc1ccc(Cl)cc1)/C(=C/c1cccnc1)NC(=O)c1ccccc1 99%, COc1ccc(CCNC(=O)Nc2ccc([N+](=O)[O-])cc2)cc1OC 95%, CC(=O)OC(C)CS(=O)(=O)c1ccccc1 (stereo not given) 97%, O=C(Cn1nc(-c2ccccc2)c2ccccc2c1=O)Nc1cccc(O)c1 96%

GTP binding activity, inconclusive:
O=C(CSc1nnc(Cc2ccccc2)o1)c1ccccc1 89%, CCOc1ccc(NC(=S)N(CCN2CCOCC2)Cc2cc3cc4c(cc3[nH]c2=O)OCO4)cc1 94%, CC/C(=N\Nc1ccccc1[N+](=O)[O-])c1ccc(O)cc1 91%, COc1ccc(CCNC(=O)c2ccc(CSc3ccccc3)o2)cc1 90%, O=C(Nc1ccc(N2CCN(C(=O)c3cccs3)CC2)cc1)c1cccnc1Cl 96%, COc1ccc(OC)c(NC(=S)N2CCN(c3ccccn3)CC2)c1 87%, CCCOC(=O)c1ccc(NC(=O)Oc2ccccc2)cc1 92%, COc1ccc(N/N=C(\C#N)C(=N)N2CCOCC2)cc1 88%, CC1=CC(=C(C#N)C#N)c2ccccc2N1C 90%, O=C(c1c[nH]c2ccccc12)N1CCOCC1 95%, COc1ccc(N2CCN(C(=O)Cn3cncn3)CC2)cc1 91%, O=C1C(Cl)=C(N2CCN(Cc3ccccc3)CC2)C(=O)N1Cc1ccccc1 94%, CCOC(=O)N1CCN(C(=O)c2cccc(NC(=O)c3ccco3)c2)CC1 95%, COC(=O)C(NS(=O)(=O)c1ccc(NC(C)=O)cc1)C(C)C (stereo not given) 92%, C=CCOC(=O)CCCC(=O)NC1CCCCC1 104%, CCCCNC(=S)N(Cc1ccco1)Cc1cc2cc3c(cc2[nH]c1=O)OCCO3 100%, COc1ccc(-c2csc(Nc3ccc(S(N)(=O)=O)cc3)n2)cc1OC 94%, O=C1c2ccccc2C(=O)c2c1cccc2N1CCCC1 95%, CCCCCCCCCCS(=O)(=O)N/N=C/c1ccc(O)cc1 87%, S=C(c1ccc(-c2ccccc2)o1)N1CCCCC1 87%, Cn1c(=O)c2c(ncn2CC(=O)N/N=C/c2cn[nH]c2-c2ccc(F)cc2)n(C)c1=O 94%, O=c1ccn(Cc2ccccc2Cl)cc1 106%, CCN(CC)S(=O)(=O)c1ccc(OC)c(NC(=O)c2ccc3c(c2)OCO3)c1 92%, CCOC(=O)C1=C(C)NC(=NC)SC1c1ccccc1 (stereo not given) 98%, COc1ccc(-c2noc(CCC(=O)NCCCN3CCC(C)CC3)n2)cc1 100%, COc1ccc(NC(=O)CSc2ncccc2C(=O)OC(C)C)cc1OC 104%, CCc1nnc(NC(=O)CSc2nnc(-c3ccoc3C)n2-c2ccc(C)cc2)s1 88%, Cc1c(C(=O)NCCN2CCOCC2)oc2ccc(S(=O)(=O)N3CCCCCC3)cc12 108%, COc1ccc(NC(=O)COC(=O)CNC(=O)C2CCCCC2)cc1 96%, Cc1c(/C=N/NC(=O)CNc2ccccc2)c2ccccn2c1C(=O)c1ccncc1 88%, OC(COc1c(Cl)cc(Cl)cc1Cl)CN1CCCCC1 (stereo not given) 103%, COc1cc(NC(=O)c2ccc(Br)o2)c(C(=O)O)cc1OC 87%, CCOC(=O)C(CC)(CCC(=O)O)c1csc(N)n1 (stereo not given) 107%, Cc1ccc(S(=O)(=O)N(CC(=O)N(C)C)c2cccc([N+](=O)[O-])c2)cc1 92%, Cc1noc(NS(=O)(=O)c2ccc(NC(=O)CSc3n[nH]c(-c4ccccc4)n3)cc2)c1C 87%, CCN=c1scc(-c2ccc3c(c2)NC(=O)CO3)n1N=C1CCCC1 102%, CCN1CCN(C(c2cc(OC)c(OC)c(OC)c2)c2nnnn2C(C)C)CC1 (stereo not given) 101%, CCOc1ccc(-c2nnc(-c3cccs3)o2)cc1OCC 90%, CCOC(=O)N1CCN(C(c2cccc(OC)c2)c2sc3nc(C)nn3c2O)CC1 (stereo not given) 103%, CC(C)(C)c1ccccc1NC(=O)Cn1c(=O)cnc2ccccc21 99%

GTP binding activity, active:
COC(=O)C1=C(C)NC(=O)/C1=C\c1cc(C)n(-c2c(C)cccc2C)c1C 123% [activator], COc1ccc(N(CC(=O)Nc2cccc(C)c2C)S(=O)(=O)c2c(C)n[nH]c2C)cc1 79%, Cc1ccccc1OCCn1cc(C(=O)O)c2ccccc21 126% [activator], CCNC(=O)c1cc2c(=O)n3cccc(C)c3nc2n(CCc2ccccc2)c1=N 72%, Cn1c(=O)n(Cc2ccc(F)cc2)c(=O)c2c1nc1n2CCN1Cc1ccco1 77%, Cc1ccc(Nc2c(F)c(F)c(F)c(F)c2C(=O)O)cc1 127% [activator]

From PubChem BioAssay AID760 (NMMLSC, 2007)
